Measured values published in article PMC4674823.
These are yes or no findings as the source states them, for the method shown. Binding seen in cells or lysates may run through a third protein. Some binding calls cover weakened binding; strength is not graded here. For some assays here: Sequences can lack the tags named with a protein.

Sequences of proteins named here, by UniProt entry; tags and fusion partners are left off.
UniProt Q13131: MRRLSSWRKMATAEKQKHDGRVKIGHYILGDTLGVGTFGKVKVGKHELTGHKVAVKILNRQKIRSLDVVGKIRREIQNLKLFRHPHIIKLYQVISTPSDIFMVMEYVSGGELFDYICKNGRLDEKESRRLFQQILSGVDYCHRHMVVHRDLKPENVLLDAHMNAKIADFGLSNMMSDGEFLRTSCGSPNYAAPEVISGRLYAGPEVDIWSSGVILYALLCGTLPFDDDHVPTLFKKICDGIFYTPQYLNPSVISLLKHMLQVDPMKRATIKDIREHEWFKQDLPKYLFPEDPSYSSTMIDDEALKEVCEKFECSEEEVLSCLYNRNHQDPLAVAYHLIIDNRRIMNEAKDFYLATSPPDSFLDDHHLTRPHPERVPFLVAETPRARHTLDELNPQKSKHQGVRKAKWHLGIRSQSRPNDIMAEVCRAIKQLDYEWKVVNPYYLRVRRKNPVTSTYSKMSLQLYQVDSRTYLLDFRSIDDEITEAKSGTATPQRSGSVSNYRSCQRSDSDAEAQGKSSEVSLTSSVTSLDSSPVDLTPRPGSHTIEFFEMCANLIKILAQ
UniProt P54646: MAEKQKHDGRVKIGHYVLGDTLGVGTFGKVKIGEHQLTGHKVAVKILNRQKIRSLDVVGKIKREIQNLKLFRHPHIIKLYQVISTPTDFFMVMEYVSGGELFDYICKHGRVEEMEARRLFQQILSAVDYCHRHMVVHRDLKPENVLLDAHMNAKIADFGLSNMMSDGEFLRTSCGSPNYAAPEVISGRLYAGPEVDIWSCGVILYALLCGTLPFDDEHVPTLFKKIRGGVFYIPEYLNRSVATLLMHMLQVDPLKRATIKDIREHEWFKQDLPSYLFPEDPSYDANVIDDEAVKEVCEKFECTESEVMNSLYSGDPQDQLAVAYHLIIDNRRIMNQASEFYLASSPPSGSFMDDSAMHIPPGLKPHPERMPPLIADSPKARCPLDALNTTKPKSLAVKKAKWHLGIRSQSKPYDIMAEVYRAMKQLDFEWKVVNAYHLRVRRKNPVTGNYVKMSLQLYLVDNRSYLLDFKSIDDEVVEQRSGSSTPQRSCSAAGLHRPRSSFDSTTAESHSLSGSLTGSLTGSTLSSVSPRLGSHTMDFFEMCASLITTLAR
UniProt Q5EG47: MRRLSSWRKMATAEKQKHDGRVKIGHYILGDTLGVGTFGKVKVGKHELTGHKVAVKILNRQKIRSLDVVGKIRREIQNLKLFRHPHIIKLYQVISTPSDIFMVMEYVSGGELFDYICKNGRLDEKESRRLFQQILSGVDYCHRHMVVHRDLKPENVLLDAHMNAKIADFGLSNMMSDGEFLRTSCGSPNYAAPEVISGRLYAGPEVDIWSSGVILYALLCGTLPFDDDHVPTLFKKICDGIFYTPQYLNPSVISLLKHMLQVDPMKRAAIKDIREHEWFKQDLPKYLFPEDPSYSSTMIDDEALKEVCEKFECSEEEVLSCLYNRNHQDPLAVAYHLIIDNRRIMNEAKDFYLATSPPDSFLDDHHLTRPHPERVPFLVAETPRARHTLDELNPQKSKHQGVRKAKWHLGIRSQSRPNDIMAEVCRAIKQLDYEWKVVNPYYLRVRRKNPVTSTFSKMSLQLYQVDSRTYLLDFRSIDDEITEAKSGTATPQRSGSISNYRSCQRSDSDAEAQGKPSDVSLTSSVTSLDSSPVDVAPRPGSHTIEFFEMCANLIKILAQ
UniProt Q8BRK8: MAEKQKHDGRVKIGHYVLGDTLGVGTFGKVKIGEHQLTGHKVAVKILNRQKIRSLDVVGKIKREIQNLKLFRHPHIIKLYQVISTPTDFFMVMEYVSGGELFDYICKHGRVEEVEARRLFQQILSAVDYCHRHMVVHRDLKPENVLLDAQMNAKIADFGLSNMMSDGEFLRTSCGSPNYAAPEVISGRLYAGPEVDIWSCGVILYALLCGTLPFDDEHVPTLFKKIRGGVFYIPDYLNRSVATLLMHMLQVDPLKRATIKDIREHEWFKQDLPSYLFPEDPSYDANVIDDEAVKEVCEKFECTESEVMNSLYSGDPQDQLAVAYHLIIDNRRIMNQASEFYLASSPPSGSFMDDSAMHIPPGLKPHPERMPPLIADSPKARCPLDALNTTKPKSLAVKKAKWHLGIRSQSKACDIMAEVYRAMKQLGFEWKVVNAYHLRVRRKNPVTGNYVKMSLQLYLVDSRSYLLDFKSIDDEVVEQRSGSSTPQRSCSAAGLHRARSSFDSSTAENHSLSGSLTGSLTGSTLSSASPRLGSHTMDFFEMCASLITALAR
UniProt O88907: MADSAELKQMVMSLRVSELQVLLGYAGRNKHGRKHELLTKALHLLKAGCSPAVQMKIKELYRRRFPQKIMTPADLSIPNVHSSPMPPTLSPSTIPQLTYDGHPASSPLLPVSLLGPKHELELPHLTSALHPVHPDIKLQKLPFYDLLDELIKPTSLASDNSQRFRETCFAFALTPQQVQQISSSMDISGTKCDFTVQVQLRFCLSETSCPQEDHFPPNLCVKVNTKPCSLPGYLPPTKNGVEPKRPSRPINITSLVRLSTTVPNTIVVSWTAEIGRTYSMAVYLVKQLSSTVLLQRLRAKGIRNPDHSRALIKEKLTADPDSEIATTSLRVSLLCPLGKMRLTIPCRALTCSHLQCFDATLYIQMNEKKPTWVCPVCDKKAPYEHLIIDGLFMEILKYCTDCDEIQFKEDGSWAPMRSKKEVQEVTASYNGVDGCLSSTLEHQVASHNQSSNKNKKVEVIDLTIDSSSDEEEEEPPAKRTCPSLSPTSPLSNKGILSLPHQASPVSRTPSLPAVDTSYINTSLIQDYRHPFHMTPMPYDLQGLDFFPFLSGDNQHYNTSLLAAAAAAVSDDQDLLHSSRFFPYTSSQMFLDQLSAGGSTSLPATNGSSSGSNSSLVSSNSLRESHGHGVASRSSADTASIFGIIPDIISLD

B1: PIAS3 in HEK293 cells (pull-down with GST–AMPKα) (protein, UniProt O54714 1-628)
chain: MAELGELKHMVMSFRVSELQVLLGFAGRNKSGRKHELLAKALHLLKSSCAPSVQMKIKELYRRRFPRKTLGPSDLSLLSLPPGTSPVGSPGPLAPIPPTLLTPGTLLGPKREVDMHPPLPQPVHPDVTMKPLPFYEVYGELIRPTTLASTSSQRFEEAHFTFALTPQQLQQILTSREVLPGAKCDYTIQVQLRFCLCETSCPQEDYFPPNLFVKVNGKLCPLPGYLPPTKNGAEPKRPSRPINITPLARLSATVPNTIVVNWSSEFGRNYSLSVYLVRQLTAGTLLQKLRAKGIRNPDHSRALIKEKLTADPDSEVATTSLRVSLMCPLGKMRLTVPCRALTCAHLQSFDAALYLQMNEKKPTWTCPVCDKKAPYESLIIDGLFMEILNSCSDCDEIQFMEDGSWCPMKPKKEASEVCPPPGYGLDGLQYSAVQEGIQPESKKRVEVIDLTIESSSDEEDLPPTKKHCPVTSAAIPALPGSKGALTSGHQPSSVLRSPAMGTLGSDFLSSLPLHEYPPAFPLGADIQGLDLFSFLQTESQHYGPSVITSLDEQDTLGHFFQYRGTPSHFLGPLAPTLGSSHRSSTPAPPPGRVSSIVAPGSSLREGHGGPLPSGPSLTGCRSDVISLD
B2: PIAS4 in HEK293 cells (pull-down with GST–AMPKα) (protein, UniProt Q9JM05 1-507)
chain: MAAELVEAKNMVMSFRVSDLQMLLGFVGRSKSGLKHELVTRALQLVQFDCSPELFKKIKELYETRYAKKSAEPGPQAPRPLDPLALHSMPRTPLSGPTVDYPVLYGKYLNGLGRLPTKTLKPEVRLVKLPFFNMLDELLKPTELVPQSAEKLQESPCIFALTPRQVEMIRNSRELQPGVKAVQVVLRICYSDTSCPQEDQYPPNIAVKVNHSYCSVPGYYPSNKPGVEPKRPCRPINLTHLMYLSSATNRITVTWGNYGKSYSVALYLVRQLTSSDLLQRLKTIGVKHPELCKALVKEKLRLDPDSEIATTGVRVSLICPLVKMRLSVPCRAETCAHLQCFDAVFYLQMNEKKPTWMCPVCDKPAAYDQLIIDGLLSKILSECEGADEIEFLAEGSWRPIRAEKEPSCSPQGPILVLGTSDANGLAPASSTPGIGSGLSGPGSAGSGAGAAGSLENGKTGADVVDLTLDSSSSSEDEDEDEDDDEDEDEGPRPKRRCPFQKGLVPAC
B3: endogenous PIAS4 of immortalized MEFs (protein, UniProt Q9JM05 1-507)
chain: B2 chain

What was measured:
[1] = target: GST–AMPKα1 (human), expressed in HEK293 cells (human) (UniProt Q13131); assay: pull-down; GST-tagged AMPKα1 or AMPKα2 affinity purified on Glutathione-Sepharose from HEK293 lysates (ELB buffer, 150 mM NaCl, 0.1% NP-40, overnight at +4 °C, five washes), western blot for PIAS proteins
[2] = target: GST–AMPKα2 (human), expressed in HEK293 cells (human) (UniProt P54646); assay: as above
[3] = target: endogenous AMPKα1 of immortalized MEFs (mouse (endogenous in MEFs)) (UniProt Q5EG47); assay: co-IP; lysates of immortalized MEFs (IP lysis buffer, 1% Triton X-100, 150 mM NaCl); IP with antibodies against AMPKα1 or AMPKα2 and protein G-Sepharose, control IgG and AMPKα1−/−;α2−/− MEFs as controls; western blot for PIAS4; all proteins endogenous
[4] = target: endogenous AMPKα2 of immortalized MEFs (mouse (endogenous in MEFs)) (UniProt Q8BRK8); assay: as above

| Molecule | binding [1] | binding [2] | binding [3] | binding [4] |
| --- | --- | --- | --- | --- |
| PIAS1 in HEK293 cells (pull-down with GST–AMPKα) (from UniProt O88907 1-651) | no binding | no binding | – | – |
| B1 | binds | binds | – | – |
| B2 | binds | binds | – | – |
| B3 | – | – | binds | binds |
